{
  "source": "paper PMC7555825",
  "about": "“New Insights of the Zn(II)-Induced P2 × 4R Positive Allosteric Modulation: Role of Head Receptor Domain SS2/SS3, E160 and D170” (International Journal of Molecular Sciences, 2020)",
  "origin": "cited, not measured here",
  "molecular_target": "T1, rP2 × 4R (Rattus norvegicus, UniProt P51577)",
  "T1 construct": "host or cells: Xenopus laevis oocytes (intranuclear plasmid injection, pcDNA3)",
  "T1 sequence (P51577 1-388)": "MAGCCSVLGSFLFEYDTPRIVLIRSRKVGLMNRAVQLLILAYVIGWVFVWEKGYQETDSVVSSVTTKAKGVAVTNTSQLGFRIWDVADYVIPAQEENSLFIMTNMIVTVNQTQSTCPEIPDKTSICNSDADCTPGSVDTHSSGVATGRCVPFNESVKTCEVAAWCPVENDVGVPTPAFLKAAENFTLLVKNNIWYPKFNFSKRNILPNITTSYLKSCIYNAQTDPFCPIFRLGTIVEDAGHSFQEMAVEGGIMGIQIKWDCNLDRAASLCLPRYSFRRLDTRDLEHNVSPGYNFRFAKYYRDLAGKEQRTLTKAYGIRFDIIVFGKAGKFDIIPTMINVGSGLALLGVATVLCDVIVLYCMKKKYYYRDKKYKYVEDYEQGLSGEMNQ",
  "set-up": "method as in PMID 10737610, PMID 10188989, PMID 10322050, PMID 8622997",
  "details": "P2 × 4R; cited from earlier work",
  "data": [
    {"smiles": "[Cl-].[Cl-].[Zn+2]", "note": "[Zn(II), zinc chloride (ZnCl2)]", "values": [
      {"measurement": "fold leftward displacement of the ATP concentration–response curve by Zn(II)", "value": 5, "unit": "fold"}
    ]}
  ]
}
